The whole screen tested about 110,000 compounds, of which about 230 (0.21%) showed an effect of 50% or more. This is one part of the list.
The molecules below were run against DPAP1 (Plasmodium falciparum, UniProt Q8IIJ9) (assay: primary screen, percent inhibition; read by cleavage of a fluorogenic dipeptide substrate; higher = more effect of the substance).
Set-up: species or system P. falciparum D10 trophozoite lysates; single well
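Also: 30 min substrate incubation versus DMSO and 10 µM JCP410 controls.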

Chain of DPAP1 (Q8IIJ9 whole entry, looked up): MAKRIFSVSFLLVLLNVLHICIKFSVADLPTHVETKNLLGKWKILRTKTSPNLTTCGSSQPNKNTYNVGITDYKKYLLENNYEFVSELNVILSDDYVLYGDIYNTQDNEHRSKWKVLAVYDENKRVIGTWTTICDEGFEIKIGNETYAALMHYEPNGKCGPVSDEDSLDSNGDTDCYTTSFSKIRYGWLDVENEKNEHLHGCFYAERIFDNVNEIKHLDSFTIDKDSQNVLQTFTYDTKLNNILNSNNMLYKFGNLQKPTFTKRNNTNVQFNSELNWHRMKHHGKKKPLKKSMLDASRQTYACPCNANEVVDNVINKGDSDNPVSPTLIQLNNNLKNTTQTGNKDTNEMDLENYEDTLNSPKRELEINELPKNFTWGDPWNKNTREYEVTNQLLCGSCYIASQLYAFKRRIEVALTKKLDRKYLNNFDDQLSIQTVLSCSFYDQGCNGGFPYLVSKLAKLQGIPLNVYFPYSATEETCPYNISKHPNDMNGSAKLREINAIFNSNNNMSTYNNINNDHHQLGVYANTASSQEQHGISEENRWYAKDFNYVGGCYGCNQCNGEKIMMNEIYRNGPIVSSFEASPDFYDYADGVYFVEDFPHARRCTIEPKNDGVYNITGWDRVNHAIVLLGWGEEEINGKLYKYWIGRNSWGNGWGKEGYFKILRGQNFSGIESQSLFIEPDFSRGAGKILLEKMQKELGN

Row | Structure (SMILES) | % Inhibition @ 10 uM [%]
1 | COc1cccc(CN2CCN(Cc3ccccc3)CC2)c1 | -7.49
2 | CC(C)C(NC(=O)/C(=C/c1ccco1)NC(=O)c1ccc(Br)o1)C(=O)O (stereo not shown) | 3.96
3 | CC(C)SC1=NSC2=NC(=O)/C(=C\c3ccco3)C(=N)N21 | -1
4 | Cc1ccc(CN(CC(=O)Nc2cccc(F)c2)S(=O)(=O)c2ccccc2)cc1 | -3.76
5 | Cc1cccc(OCC(=O)N(Cc2nc(-c3ccccc3)no2)C(C)C)c1C | -5.58
6 | O=C(NCc1ccco1)C1CCCCN1S(=O)(=O)c1ccc(F)cc1 (stereo not shown) | 1.23
7 | CCOc1cc(C2c3c(-c4ccccc4O)n[nH]c3C(=O)N2CCCO)ccc1O (stereo not shown) | 2.02
8 | Cc1ccc(C)c(NC(=O)C2CC(=O)N(c3ccc(F)cc3)C2)c1 (stereo not shown) | -1.28
9 | Cc1ccccc1Cn1c(=O)c(F)cn(C2CCCO2)c1=O (stereo not shown) | 0.385
10 | CCN(CCN(C)C)C1CCC(C(C)(C)C)CC1 (stereo not shown) | -6
11 | CN(C)CCCN(C(=O)Cc1ccccc1)c1nc2ccc(Cl)cc2s1 | 4.68
12 | CCC1CCCCN1C(=O)CSc1nc(O)c2c(n1)CCC2 (stereo not shown) | -10.4
13 | CCOC(=O)c1conc1-c1ccc(N(C)C)cc1 | -5.11
14 | Cc1noc2ncnc(N3CCC(C(N)=O)CC3)c12 | -6.33
15 | O=C(/C=C/c1ccc2c(c1)OCO2)Nc1ccc(Br)cc1 | 2.94
16 | Oc1ccccc1-c1cc(-c2ccccc2)[nH]n1 | -2.34
17 | COc1ccc(CNC(=O)C2=CC(c3cccs3)=NS(=O)(=O)N2C)cc1 | 2.32
18 | O=C1c2ccccc2C(=O)N1CN(CN1C(=O)c2ccccc2C1=O)C1CC1 | -0.522
19 | CCCCNCc1cccn1-c1sc2c(c1C#N)CCCC2 | -5.96
20 | COCCn1c(SCc2ccccc2Cl)nc2c1c(=O)[nH]c(=O)n2C | 0.673
21 | O=C(NCc1ccccc1Cl)c1cc2c(s1)-c1ccc(Cl)cc1S(=O)(=O)C2 | -2.67
22 | CCCCn1c(=O)c2oc3ccccc3c2n(CC(=O)NCc2ccc(C)cc2)c1=O | -0.326
23 | O=C1C(=C/C=C/c2ccccc2)C(=O)c2ccccc21 | -4.11
24 | O=S(=O)(Nc1ccc(NS(=O)(=O)c2ccc(F)cc2)cc1)c1ccc(F)cc1 | -1.42
25 | C=C(C)Cn1c(COc2ccc(OC)cc2)nc2ccccc21 | 3.12

Row | Structure (SMILES) | % Inhibition @ 10 uM [%]
26 | O=c1/c(=C/c2cccs2)sc2nc(-c3ccc(Br)cc3)nn12 | 1.91
27 | Cc1nc(N2C(=O)c3oc4ccccc4c(=O)c3C2c2cccc(Oc3ccccc3)c2)sc1C (stereo not shown) | 1.19
28 | O=C(COc1ccc2ccccc2c1)Nc1cccc(Cl)c1 | -2.8
29 | Cc1ccccc1NC(=O)c1cc(Cl)ccc1NC(=O)c1ccco1 | -7.14
30 | COc1ccc(-c2csc(/C(C#N)=C\Nc3ccc(Br)cc3)n2)cc1 | -3.19
31 | Cc1[nH]c2ccccc2c1C(=O)CSc1nnnn1C | -5.53
32 | CCOc1ccc2[nH]c(SCc3ccc(C)cc3)nc2c1 | -3.14
33 | CN1C2C=C(N(C(=O)c3ccc(Cl)cc3)c3ccccc3)CC1CC2 (stereo not shown) | -4.21
34 | CC1(C)Oc2ccc3ccc(=O)oc3c2C(/C=N/C23CN4CN(CN(C4)C2)C3)=C1O | -3.13
35 | NC1=NC(c2ccc(OCc3ccccc3)cc2)n2c(nc3ccccc32)N1 (stereo not shown) | -1.11
36 | CN1CCN(c2nc3c(c(=O)[nH]c(=O)n3C)n2CCc2ccccc2)CC1 | 3.44
37 | Cc1nc([N+](=O)[O-])cn1-c1ccccc1N | -0.687
38 | O=C(Nc1cc(Cl)cc(Cl)c1)c1ccc(C(=O)Nc2cc(Cl)cc(Cl)c2)cc1 | -1.22
39 | CCOC(=O)N1CCC(NC(=O)CSCc2nc(-c3ccc(C)cc3)oc2C)CC1 | 2.37
40 | Clc1ccc(CCNc2nc3ccccc3c3nc(-c4cccnc4)nn23)cc1 | 2.6
41 | Nc1ccc(-c2nc3cc(N)ccc3s2)c(O)c1 | 3.83
42 | CCn1c2ccccc2c2cc(CN3CCN(c4ccc(F)cc4)CC3)ccc21 | -0.969
43 | COc1ccc(Cc2nnc(NC(=O)Cc3ccc(F)cc3)s2)cc1OC | 2.16
44 | CC1CC(C)CN(CC(O)COCCOc2ccc(Br)cc2)C1 (stereo not shown) | 0.907
45 | COc1ccc(-c2c(C(C)=O)c(C)nc3sc4c(=O)n(-c5ccccc5)cnc4c23)cc1 | -15.4
46 | CN(CC(O)c1ccccc1)C1CCC(C(C)(C)C)CC1 (stereo not shown) | -1.75
47 | Nc1cccc2c1nnn2C1OC(CO)C(O)C(O)C1O (stereo not shown) | -0.0267
48 | COc1ccc(-c2coc3c(C)c4oc(=O)c(CC(=O)O)c(C)c4cc23)cc1 | 6.85
49 | CC1=C(C(=O)Nc2ccc(F)cc2)C(c2ccccc2C)C2=C(O)CCCC2=N1 (stereo not shown) | 5.66
50 | CC(=O)NCCc1ccc(S(=O)(=O)N2CCOCC2)cc1 | -5

Row | Structure (SMILES) | % Inhibition @ 10 uM [%]
51 | OC(C#CC12CC3CC(CC(C3)C1)C2)c1ccccn1 (stereo not shown) | 1.02
52 | CCOCCCN1CNc2c(c(=O)n(C)c(=O)n2C)C1 | -6.67
53 | COC(F)(C(=O)Nc1sc(C(=O)N2CCCCC2)c(C)c1C#N)C(F)(F)F (stereo not shown) | -4.12
54 | COc1cc(C(=O)NCCC(=O)N2CCN(C)CC2)cc(OC)c1OC | -1.99
55 | O=S(=O)(NCCO)c1ccc2cc(O)ccc2c1 | -2.47
56 | CN1CCN(c2nc3c(c(=O)n(C)c(=O)n3C)n2Cc2ccccc2)CC1 | 7.89
57 | O=C(CCc1nnc2n(Cc3ccccc3Cl)c(=O)c3ccccc3n12)NCCc1ccccc1 | -2.42
58 | O=C(Nc1sc2c(c1C(=O)NCc1cccnc1)CCCC2)c1ccc(Cl)cc1 | 2.01
59 | CN(C)/C=C1/C(=O)NC(=O)N(c2ccc(Cl)cc2)C1=O | -1.04
60 | COC(=O)c1nn2c(C(F)(F)F)cc(-c3ccc(C)cc3)nc2c1Cl | -0.142
61 | O=C(COc1ccc(Cl)cc1)NC1CCC(NC(=O)COc2ccc(Cl)cc2)CC1 (stereo not shown) | -5.27
62 | O=C(O)c1cccc(N2C(=O)C3C4CCC(C4)C3C2=O)c1 (stereo not shown) | -4.84
63 | CC1=CC(=C(C#N)C#N)CC(C)(C)C1 | -6.2
64 | CCN1CCN(C(=O)c2c(C)oc3c2C(=O)c2ccccc2C3=O)CC1 | -7.35
65 | COc1cccc(OCC(O)Cn2c(C)[n+](C)c3ccccc32)c1 (stereo not shown) | -1.6
66 | CCc1nn(CC(=O)NCCc2ccccc2)c(=O)c2cc3cc(F)ccc3n12 | -7.22
67 | CCOc1cc(C(=O)Nc2ccccc2)cc(OCC)c1OCC | -4.21
68 | COc1ccc(-c2noc(NCC3CCN(Cc4ccc(C)cc4)C3)n2)cc1OC (stereo not shown) | -2.21
69 | COc1ccc2nc(NC(=O)c3cn(CC(C)C)c(=O)c4c3c3ccccc3n4C)sc2c1 | 1.82
70 | CS(=O)(=O)N(Cc1ccccc1Cl)c1ccc(C(=O)Nc2ccc3c(c2)OCO3)cc1 | -0.48
71 | CCOC(=O)C1CCN(Cc2ccc(Cl)cc2)CC1 | -5.68
72 | C=C(C)CN1CCN(c2c3c(c(C#N)c4nc5ccccc5n24)CCC3)CC1 | -1.33
73 | CCOc1ccc(N2C(=O)CC(Nc3ccc(OC)cc3)C2=O)cc1 (stereo not shown) | 2.38
74 | Cc1nnc(N2C(=O)c3oc4ccccc4c(=O)c3C2c2cccc(OCc3ccccc3)c2)s1 (stereo not shown) | 1.19
75 | CC(=O)Nc1sc2c(c1C(c1ccccc1Cl)N1CCN(CCO)CC1)CCCC2 (stereo not shown) | -3.53

Row | Structure (SMILES) | % Inhibition @ 10 uM [%]
76 | CCN(CC)C(=O)Cn1cnc2sc(C(=O)NCCCOC)c(C)c2c1=O | -2.87
77 | COc1cccc(C(=O)NC(C)c2ccc3c(c2)OCCO3)c1 (stereo not shown) | 5.24
78 | Cc1ccsc1-c1nc(CSCC(=O)NCc2ccc3c(c2)OCO3)c(C)o1 | -2.85
79 | O=C(O)CNC(=O)c1ccccc1Cl | -3.44
80 | Cc1cc(C)c(S(=O)(=O)Nc2ccc(Cl)c(Cl)c2)c(C)c1 | -1.22
81 | COCCC/N=C/C1=C(O)c2sccc2N(Cc2cccc(F)c2)S1(=O)=O | -3.09
82 | O=C(CSC1CC(=O)N(c2ccc(F)cc2)C1=O)Nc1cccc(F)c1 (stereo not shown) | -2.89
83 | Cc1nc2ccc(C(=O)Nc3ccc(N4CCOCC4)cc3)cc2s1 | 1.94
84 | CCCc1nc(SC)ncc1C(=O)Nc1nccs1 | 2.74
85 | COc1ccc(CC(C)NCc2ccccc2Cl)cc1 (stereo not shown) | 6.06
86 | O=C(O)c1cc2cc(Cc3ccccc3Cl)ccc2oc1=O | 0.221
87 | COc1ccc(Cl)cc1S(=O)(=O)N1CCN=C1c1ccccc1 | 3.66
88 | Clc1ccc(-c2noc(-c3ccccc3)n2)cc1 | -0.902
89 | COc1ccc(CN2C(=O)c3cccnc3C2=O)cc1S(=O)(=O)NCC1CCCO1 (stereo not shown) | 3.1
90 | CC(C)(C)NC(=O)CCN1C(=O)c2ccccc2C1=O | 16.8
91 | CC(C)OC(=O)NCCN1C(=O)C2C3C=CC(C3)C2C1=O (stereo not shown) | 3.67
92 | CCN1CCN(CC2CC3C=CC2C3)CC1 (stereo not shown) | 2.5
93 | Cc1cc(C)cc(NC=C2C(=O)N(C)C(=O)N(C)C2=O)c1 | 5.65
94 | COCCn1c(=O)c(C#N)cc2c(=O)n3ccccc3nc21 | -2.28
95 | Cc1cccc(CN2CCC(CNC(=O)c3cn(C)c(=O)c4c3c3ccccc3n4C)CC2)c1 | 1.37
96 | Cc1cc(C)c2c(n1)SCC(=O)N2CCCC(=O)NCc1ccccc1 | 1.03
97 | O=C(NCCc1ccc(Cl)cc1)C1CC(=O)N(CCc2ccccc2)C1 (stereo not shown) | -0.0542
98 | O=C(NC1CCCCC1)c1ccc(CS(=O)Cc2ccccc2Cl)o1 (stereo not shown) | -3.02
99 | Cc1n[nH]c(C)c1CCc1nc2c3ccccc3nc(NCCCOC(C)C)n2n1 | -2.42
100 | CC(CNC(=O)C1CCCCC1)NC(=O)C1CCCCC1 (stereo not shown) | 1.28
